Laboratory results as given in the supplement of paper PMC4967469.
Lines with a small IC50 respond at low doses; a limit (>, <) means that the fit lies beyond the doses tested. AUC is the area under the same curve over the 256-fold range up to the top dose, as a fraction; the more sensitive the line, the further below 1. An inferred top dose comes from the curve model; the source does not state it. For some of these results: An entry number marks a drug with two screens in the source, which often give different values.

Tests used:
[1] = compound: O=c1[nH]c2ccccc2n1C1CCN(Cc2ccc(-c3[nH]c4cc5ncnc5cc4nc3-c3ccccc3)cc2)CC1 [AKT inhibitor VIII]; assay: Viability of human cancer cell lines after 72 h of drug (GDSC screen); details: top dose inferred
Experimental: (§1)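 Human cancer cell lines in 384-well plates, medium with 10% serum, drug for 72 h over a 256-fold dose range (nine 2-fold or five 4-fold steps up to the top dose). Adherent lines were fixed and stained with the nucleic acid dye Syto60, suspension lines read with resazurin; signal relative to control wells, capped at 0 and 100%. One two-parameter sigmoid per drug and line, fitted in a mixed model over all curves with the slope shared within a line.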

[2] = compound: NC(=O)c1ncn([C@@H]2O[C@H](CO)[C@@H](O)[C@H]2O)c1N [AICAR]; assay: as above; details: top dose 2000 µM; top dose inferred
Experimental: as §1

[3] = top dose 2.56 µM, screen: GDSC drug entry 171
[4] = top dose 10.24 µM, screen: GDSC drug entry 228

Cell Line	AUC [1, 3]	IC50 [1, 3]	AUC [1, 4]	IC50 [1, 4]	AUC [2]	IC50 [2]
KOPN-8 (B-cell leukaemia, suspension)	0.98	> 2.56 µM	0.764	3.22 µM	0.685	379 µM
KP-1N (pancreas, adherent)	0.927	> 2.56 µM	0.638	1.57 µM	0.808	1100 µM
KP-2 (pancreas, adherent)	0.983	> 2.56 µM	0.877	> 10.2 µM	0.711	521 µM
KP-3 (pancreas, adherent)	0.953	> 2.56 µM	0.876	> 10.2 µM	0.948	> 2000 µM
KP-N-YN (neuroblastoma, adherent)	0.985	> 2.56 µM	0.971	> 10.2 µM	0.845	1660 µM
KU812 (chronic myeloid leukaemia, suspension)	0.84	1.55 µM	0.639	1.49 µM	0.855	1370 µM
KU-19-19 (bladder, adherent)	0.981	> 2.56 µM	0.983	> 10.2 µM	0.882	> 2000 µM
KURAMOCHI (ovary, adherent)	0.787	1.31 µM	0.807	6.3 µM	0.984	> 2000 µM
KYAE-1 (oesophagus, suspension)			0.459	0.49 µM	0.888	> 2000 µM
KYSE-50 (oesophagus, adherent)	0.928	> 2.56 µM	0.773	3.64 µM	0.733	535 µM
KYSE-70 (oesophagus, adherent)	0.892	> 2.56 µM	0.915	> 10.2 µM	0.892	> 2000 µM
KYSE-140 (oesophagus, adherent)	0.947	> 2.56 µM	0.877	> 10.2 µM	0.819	1340 µM
KYSE-220 (oesophagus, adherent)	0.942	> 2.56 µM	0.784	4.6 µM	0.984	> 2000 µM
KYSE-410 (oesophagus, adherent)	0.97	> 2.56 µM	0.929	> 10.2 µM	0.881	> 2000 µM
KYSE-450 (oesophagus, adherent)	0.972	> 2.56 µM	0.872	8.8 µM	0.865	1610 µM
KYSE-510 (oesophagus, adherent)	0.866	1.67 µM	0.941	> 10.2 µM	0.742	531 µM
KYSE-520 (oesophagus, adherent)	0.91	> 2.56 µM	0.865	> 10.2 µM	0.679	473 µM
L-363 (myeloma, suspension)	0.985	> 2.56 µM	0.868	7.27 µM	0.672	349 µM
L-428 (Hodgkin lymphoma, suspension)	0.985	> 2.56 µM	0.919	> 10.2 µM	0.897	1970 µM

Cell Line	AUC [1, 3]	IC50 [1, 3]	AUC [1, 4]	IC50 [1, 4]	AUC [2]	IC50 [2]
L-540 (Hodgkin lymphoma, suspension)	0.99	> 2.56 µM	0.958	> 10.2 µM	0.821	994 µM
L-1236 (Hodgkin lymphoma, suspension)	0.992	> 2.56 µM	0.954	> 10.2 µM	0.243	26.3 µM
LAN-6 (neuroblastoma, adherent)	0.971	> 2.56 µM	0.838	8.85 µM	0.984	> 2000 µM
LB373-MEL-D (melanoma, adherent)	0.989	> 2.56 µM	0.98	> 10.2 µM	0.979	> 2000 µM
LB831-BLC (bladder, adherent)	0.952	> 2.56 µM	0.958	> 10.2 µM	0.933	> 2000 µM
LB2518-MEL (melanoma, adherent)	0.985	> 2.56 µM	0.929	> 10.2 µM	0.925	> 2000 µM
LC4-1 (lymphoblastic leukaemia, suspension)	0.88	> 2.56 µM	0.431	0.406 µM	0.816	1260 µM
LC-1-sq (lung squamous cell carcinoma, adherent)	0.962	> 2.56 µM	0.931	> 10.2 µM	0.772	907 µM
LCLC-97TM1 (large cell lung carcinoma, adherent)	0.813	1.55 µM	0.715	2.77 µM	0.803	1100 µM
LCLC-103H (large cell lung carcinoma, adherent)	0.926	> 2.56 µM	0.917	> 10.2 µM	0.859	1410 µM
LK-2 (lung squamous cell carcinoma, adherent)	0.988	> 2.56 µM	0.865	8.17 µM	0.916	> 2000 µM
LN-18 (glioma, adherent)	0.968	> 2.56 µM	0.974	> 10.2 µM	0.969	> 2000 µM
LN-229 (glioma, adherent)	0.975	> 2.56 µM	0.933	> 10.2 µM	0.868	1810 µM
LN-405 (glioma, adherent)	0.967	> 2.56 µM	0.948	> 10.2 µM	0.889	> 2000 µM
LNZTA3WT4 (glioma, adherent)	0.963	> 2.56 µM	0.976	> 10.2 µM	0.871	1830 µM
LOU-NH91 (lung squamous cell carcinoma, adherent)	0.986	> 2.56 µM	0.973	> 10.2 µM	0.879	> 2000 µM
LOUCY (T-cell lymphoblastic leukaemia, suspension)	0.964	> 2.56 µM	0.34	0.252 µM	0.873	1340 µM
LP-1 (myeloma, suspension)	0.975	> 2.56 µM	0.772	3.31 µM	0.952	> 2000 µM
LS-123 (large intestine, adherent)	0.965	> 2.56 µM	0.922	> 10.2 µM	0.854	> 2000 µM

Cell Line	AUC [1, 3]	IC50 [1, 3]	AUC [1, 4]	IC50 [1, 4]	AUC [2]	IC50 [2]
LS-180 (large intestine, adherent)	0.881	> 2.56 µM	0.944	> 10.2 µM	0.916	> 2000 µM
LS-411N (large intestine, adherent)	0.744	0.95 µM	0.776	5.01 µM	0.859	> 2000 µM
LS-513 (large intestine, adherent)	0.969	> 2.56 µM	0.781	4.41 µM	0.907	> 2000 µM
LS-1034 (large intestine, adherent)	0.959	> 2.56 µM	0.908	> 10.2 µM	0.947	> 2000 µM
LU-65 (large cell lung carcinoma, suspension)	0.979	> 2.56 µM	0.775	4.79 µM	0.964	> 2000 µM
LU-134-A (small cell lung carcinoma, suspension)	0.973	> 2.56 µM	0.887	> 10.2 µM	0.92	> 2000 µM
LU-135 (small cell lung carcinoma, suspension)	0.904	2.39 µM	0.901	9.29 µM	0.818	892 µM
LU-165 (small cell lung carcinoma, suspension)	0.982	> 2.56 µM	0.762	4.1 µM	0.988	> 2000 µM
LXF-289 (lung adenocarcinoma, adherent)	0.841	1.74 µM	0.796	4.69 µM	0.842	1370 µM
LoVo (large intestine, adherent)	0.895	> 2.56 µM	0.953	> 10.2 µM	0.923	> 2000 µM
M14 (melanoma, adherent)	0.956	> 2.56 µM	0.976	> 10.2 µM	0.89	> 2000 µM
M059J (glioma, adherent)	0.955	> 2.56 µM	0.94	> 10.2 µM	0.892	> 2000 µM
MC-CAR (haematopoietic neoplasm, suspension)	0.938	> 2.56 µM	0.505	0.658 µM	0.569	188 µM
MC-IXC (neuroblastoma, adherent)	0.877	1.45 µM	0.895	6.63 µM	0.914	1500 µM
MCF7 (breast, adherent)	0.95	> 2.56 µM	0.986	> 10.2 µM	0.823	1230 µM
MDA-MB-175-VII (breast, adherent)	0.918	> 2.56 µM	0.658	1.84 µM	0.956	> 2000 µM
MDA-MB-231 (breast, adherent)	0.979	> 2.56 µM	0.916	> 10.2 µM	0.837	1450 µM
MDA-MB-330 (breast, adherent)	0.743	0.89 µM	0.695	2.46 µM	0.953	> 2000 µM
MDA-MB-361 (breast, adherent)	0.69	0.544 µM	0.695	2.25 µM	0.846	1440 µM
